# Data from the supplement of paper PMC10322689.
# Structures can show the parent of a compound that is named as a salt. This is one part of the list. Most values come without repeats; read them as rough.
# Test system: mouse mesenchymal chondrosarcoma cells (HEY1-NCOA2)
# Assay: XTT absorbance relative to DMSO control (cell viability) (fraction of DMSO control); higher = more viable cells / less growth inhibition
row,Structure (SMILES),XTT absorbance
1,CNC(=O)c1ccc(N2C(=S)N(c3ccc(C#N)c(C(F)(F)F)c3)C(=O)C2(C)C)cc1F,0.941
2,COc1ccc(C2=N[C@@H](c3ccc(Cl)cc3)[C@@H](c3ccc(Cl)cc3)N2C(=O)N2CCNC(=O)C2)c(OC(C)C)c1 [Nutlin-3],0.85
3,CC(C)C[C@H](NC(=O)[C@@H](O)[C@H](N)Cc1ccccc1)C(=O)O [Bestatin],1.02
4,CCOC(=O)C(C)(C)Oc1ccc(Cl)cc1 [Clofibrate],0.935
5,O=C(CCCCCN1C(=O)c2cccc3cccc(c23)C1=O)NO [Scriptaid],0.677
6,Cc1c(C)c2c(c(C)c1O)CCC(C)(COc1ccc(CC3SC(=O)NC3=O)cc1)O2 (stereo unspecified) [Troglitazone],0.939
7,CNCCCN1c2ccccc2CCc2ccccc21 [desipramine hydrochloride],0.983
8,CCCCC[C@H](CC(=O)NO)C(=O)N[C@H](C(=O)N1CCC[C@H]1CO)C(C)C [Actinonin],0.922
9,Cc1nc2sccn2c(=O)c1CCN1CCC(=C(c2ccccc2)c2ccc(F)cc2)CC1,0.946
10,CCCC[C@@H](C)/C=C(C)/C=C(\C)C(=O)NC1=C[C@@](O)(/C=C/C=C/C=C/C(=O)NC2=C(O)CCC2=O)[C@@H]2O[C@@H]2C1=O [Manumycin A],0.944
11,CC[C@]1(O)C[C@@H]2CN(CCc3c([nH]c4ccccc34)[C@@](C(=O)OC)(c3cc4c(cc3OC)N(C)[C@H]3[C@@](O)(C(=O)OC)[C@H](OC(C)=O)[C@]5(CC)C=CCN6CC[C@]43[C@@H]65)C2)C1 [Vinblastine sulfate],0.426
